Results as given in the supplement of paper PMC11060735.
Where a name gives a salt, the structure may show the parent alone. About 50 (3%) of roughly 1,800 compounds showed activity. The list shows a part of the results.

tested on: mouse p16Ink4a+/- lung fibroblasts (INKBRITE, bleomycin-injured); test: percentage of GFP+ (p16Ink4a+) fibroblasts among all cells in well; higher = less depletion of p16Ink4a+ cells, active = 20 or less; conditions: 1 µM; 3 days
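Note: fibroblasts sorted 14 days after bleomycin, GFP+ and GFP− mixed 1:1 in 384-well plates (GFP− as in-well control), imaged after Hoechst and NucView530 staining, reference wells lacked compound.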

SMILES | percentage of GFP+
O=C(NC[C@H](O)CO)c1ccncc1Nc1ccc(I)cc1F [Pimasertib] | inactive: 24.5%
O=c1c(O)c(-c2ccc(O)c(O)c2)oc2cc(O)ccc12 [Fisetin] | inactive: 40.8%
c1cn2cc(-c3ccc4c[nH]nc4c3)nc(Nc3ccc(N4CCOCC4)cc3)c2n1 | inactive: 42.5%
C[C@@H](NCCc1ccc(O)cc1)[C@@H](O)c1ccc(O)cc1 [Ritodrine HCl] | inactive: 37.6%
Cc1[nH]c2ccccc2c1CCNC(=O)c1cccs1 [N-[2-(2-methyl-1H-indol-3-yl)ethyl]thiophene-2-carboxamide] | inactive: 39.3%
COc1c(N2CCNC(C)C2)c(F)cc2c(=O)c(C(=O)O)cn(C3CC3)c12 (centres undefined) [Gatifloxacin] | inactive: 43.4%
Cc1cc(/C=C/C#N)cc(C)c1Nc1ccnc(Nc2ccc(C#N)cc2)n1 [Rilpivirine] | inactive: 45.7%
COc1ccccc1S(=O)(=O)Nc1ccc2c(c1)CN(C)C(=O)N2 | inactive: 30.6%
C=CCN1CCCC1CNC(=O)c1cc2nn[nH]c2cc1OC (centres undefined) [Alizapride] | inactive: 41.8%
CC(=O)c1cc([N+](=O)[O-])c(Sc2cccc(Cl)c2Cl)s1 | inactive: 41.2%
O=C(NCCO[N+](=O)[O-])c1cccnc1 [Nicorandil] | inactive: 33.1%
NC(=O)C(c1ccccc1)(c1ccccc1)[C@@H]1CCN(CCc2ccc3c(c2)CCO3)C1 [Darifenacin] | inactive: 41.5%
O=C1CCC[C@@H]2[C@H]3CCC[N+]4([O-])CCC[C@@H](CN12)[C@@H]34 (some centres undefined) [Oxymatrine] | inactive: 37.4%
Cc1c(C(=O)N2CCOc3ccc(-c4ccc(N)nc4)cc3C2)ccc(S(C)(=O)=O)c1F | inactive: 40.6%
CCc1c(C(=O)NCCc2ccc(N3CCCCC3)cc2)[nH]c2ccc(Cl)cc12 | inactive: 40.4%
Cc1ccc(C(=O)Nc2ccc(CN3CCN(C)CC3)c(C(F)(F)F)c2)cc1C#Cc1cnc2cccnn12 [Ponatinib] | inactive: 31.2%
CCN(CC)CCCC(C)Nc1nc(C)cc(Nc2ccc3nc(C)cc(N)c3c2)n1 (centres undefined) | inactive: 51.1%
C1=C/COCc2cc(ccc2OCCN2CCCC2)Nc2nccc(n2)-c2cccc(c2)COC/1 [Pacritinib] | inactive: 37%
COCC(=O)NC/C=C/c1ccc2ncnc(Nc3ccc(Oc4ccc(C)nc4)c(C)c3)c2c1 | inactive: 44.9%
Cc1cc(OCCCS(C)(=O)=O)cc(C)c1-c1cccc(COc2ccc3c(c2)OC[C@H]3CC(=O)O)c1 | inactive: 42.9%
CN(C)CC/C=C1/c2ccccc2Sc2ccc(Cl)cc21 [Chlorprothixene] | inactive: 51.2%
O=c1ccn([C@@H]2O[C@H](CO)[C@@H](O)[C@H]2O)c(=O)[nH]1 [Uridine] | inactive: 48.8%
Cn1c(Nc2ccc(C(F)(F)F)cc2)nc2cc(Oc3ccnc(-c4nc(C(F)(F)F)c[nH]4)c3)ccc21 | inactive: 37%
C=C1C(=O)O[C@@H]2/C=C(\C)CC/C=C(\C)CC[C@@H]12 [Costunolide] | inactive: 34.2%
OC[C@@H](O)[C@@H](O)[C@@H](O)CO [Ribitol] | inactive: 42.9%

SMILES | percentage of GFP+
CC1=NN(c2ccccc2)C(=O)C1 [3-methyl-1-phenyl-2-pyrazolin-5-one (mci-186), Edaravone] | inactive: 43.3%
Cc1nc(O)c(C#N)cc1-c1ccncc1 [Milrinone] | inactive: 37.8%
CC(C)c1cc(-c2ccc(F)c3ccccc23)nc(N)n1 | inactive: 48%
CC[C@H](Nc1ncnc2[nH]cnc12)c1nc2cccc(F)c2c(=O)n1-c1ccccc1 [Idelalisib] | inactive: 32.7%
NC(=O)c1cccc(N)c1 [3-aminobenzamide] | inactive: 39.9%
CC(C)(C)c1nc(-c2cccc(NS(=O)(=O)c3c(F)cccc3F)c2F)c(-c2ccnc(N)n2)s1 [Dabrafenib] | inactive: 23%
Cc1c(NC(=O)OC[C@@H]2COCCN2)cn2ncnc(Nc3ccc4c(cnn4Cc4cccc(F)c4)c3)c12 | inactive: 54.2%
CCCCCCCCCCCC[N+](C)(C)CCOc1ccccc1 [Domiphen] | inactive: 51.1%
COc1cc2ncnc(Oc3cccc(NC(=O)Nc4cc(C(C)(C)C(F)(F)F)on4)c3)c2cc1OC | inactive: 41.1%
CC[C@@H]1C(=O)N(C)c2cnc(Nc3ccc(C(=O)N[C@H]4CC[C@H](N5CCN(CC6CC6)CC5)CC4)cc3OC)nc2N1C(C)C [Volasertib] | inactive: 20.4%
CC(C(=O)O)c1ccc2c(c1)[nH]c1ccc(Cl)cc12 (centres undefined) [Carprofen] | inactive: 45.4%
CNC(=O)[C@H](Cc1c[nH]c2ccccc12)NC(=O)[C@@H](CC(=O)NO)CC(C)C | inactive: 41.5%
CN1CCN(c2nc(C3=C(c4c[nH]c5ccccc45)C(=O)NC3=O)c3ccccc3n2)CC1 [Sotrastaurin] | inactive: 50.7%
N#C/C(=C(/N)Sc1ccc(N)cc1)c1ccccc1C(F)(F)F | inactive: 47.9%
N=C(N)c1ccc(N=NNc2ccc(C(=N)N)cc2)cc1 [Diminazene] | inactive: 55%
O=C(O)/C(Cc1ccccc1[N+](=O)[O-])=N/Nc1nc(-c2ccc(Cl)c(Cl)c2)cs1 | inactive: 36.8%
O=c1cc(-c2cccc3c2Sc2ccccc2S3)oc(N2CCOCC2)c1 [ATM Kinase Inhibitor] | inactive: 50.2%
O=c1cc(-c2ccccc2)oc2cc(O)cc(O)c12 [Chrysin] | inactive: 43.8%
C[C@@H](Oc1cc(-c2cnn(C3CCNCC3)c2)cnc1N)c1c(Cl)ccc(F)c1Cl [Crizotinib] | inactive: 50.9%
S=C=Nc1cccc(NC(=S)NCCCCNC(=S)Nc2cccc(N=C=S)c2)c1 | inactive: 43.5%
Cc1cc2c(F)c(Oc3ncnn4cc(OC[C@@H](C)O)c(C)c34)ccc2[nH]1 [Brivanib] | inactive: 43.4%
CC(C)(Cc1ccc2ccccc2c1)NC[C@@H](O)COc1cccc(Cl)c1C#N | inactive: 36.6%
COc1ccc(Cl)cc1C(=O)NCCc1ccc(S(=O)(=O)NC(=O)NC2CCCCC2)cc1 [Glibenclamide, Glyburide] | inactive: 45.6%
O=c1c(O)c(-c2ccc(O)cc2)oc2cc(O)cc(O)c12 [Kaempherol] | inactive: 46.4%
CC[C@@H](CO)NCCN[C@@H](CC)CO [Ethambutol] | inactive: 46%

SMILES | percentage of GFP+
CCCCc1oc2ccccc2c1C(=O)c1cc(I)c(OCCN(CC)CC)c(I)c1 [Amiodarone] | inactive: 50.3%
COc1nc(C)nc(Cl)c1NC1=NCCN1 [Moxonidine, Moxonidine Hydrochloride] | inactive: 43.1%
CC(C)[N+]1(C)C2CCC1CC(OC(=O)C(CO)c1ccccc1)C2 (centres undefined) [Ipratropium Bromide] | inactive: 40.3%
CCN(CC)CCOc1ccc(/C(=C(\Cl)c2ccccc2)c2ccccc2)cc1 [Clomiphene] | inactive: 30.2%
O=c1sn(-c2cccc3ccccc23)c(=O)n1Cc1ccccc1 [Tideglusib] | inactive: 53%
N#Cc1c(O)nc2scc(-c3ccc(-c4ccccc4O)cc3)c2c1O | inactive: 51.1%
Cn1cc(/C=C2/C(=O)Nc3cccnc32)c2ccccc21 | inactive: 40.7%
CCC1=C(C)CN(C(=O)NCCc2ccc(S(=O)(=O)NC(=O)N[C@H]3CC[C@H](C)CC3)cc2)C1=O [Glimepiride] | inactive: 31.8%
OCCn1cc(-c2cnc3nnn(Cc4ccc5ncccc5c4)c3n2)cn1 | inactive: 41.7%
Nc1ncnc2c1ncn2[C@@H]1O[C@H](CO)[C@@H](O)[C@@H]1O [Vidarabine] | inactive: 34.7%
CCOc1ccc(NC(C)=O)cc1 [Phenacetin] | inactive: 46.1%
COc1cc(NC(C)CCCN)c2ncccc2c1 (centres undefined) [Primaquine] | inactive: 43.4%
CCc1cccc2c3c([nH]c12)[C@@](CC)(CC(=O)O)OCC3 [Etodolac] | inactive: 46.9%
Cc1cc(=O)oc2cc(O)ccc12 [7-hydroxy-4-methyl-2H-chromen-2-one] | inactive: 43.4%
C[C@@H]1O[C@@H](OC[C@H]2O[C@@H](Oc3c(-c4ccc(O)c(O)c4)oc4cc(O)cc(O)c4c3=O)[C@H](O)[C@@H](O)[C@@H]2O)[C@H](O)[C@H](O)[C@H]1O [Rutin] | inactive: 41.8%
C/C(=C\c1ccc(C(=O)O)cc1)c1ccc2c(c1)C(C)(C)CCC2(C)C | inactive: 42.2%
Cc1c(Cl)cccc1Nc1ccccc1C(=O)O [Tolfenamic Acid] | inactive: 40.1%
CCO/C(O)=C1\C(C)=NC(C)=C(C(=O)OC)C1c1cccc(Cl)c1Cl (centres undefined) [Felodipine] | inactive: 27.4%
C[N+](C)(C)CCOC(=O)CCC(=O)OCC[N+](C)(C)C [Succinylcholine] | inactive: 54.6%
COc1cc2ncc(-c3ccccc3)nc2cc1OC [Tyrphostin AG] | inactive: 53.2%
CC1(C)CCC(c2ccc(Cl)cc2)=C(CN2CCN(c3ccc(C(=O)NS(=O)(=O)c4ccc(N[C@H](CCN5CCOCC5)CSc5ccccc5)c(S(=O)(=O)C(F)(F)F)c4)cc3)CC2)C1 [Navitoclax] | inactive: 53%
CCOC(=O)[C@H](CCc1ccccc1)N[C@H]1CCCN2CCC[C@@H](C(=O)O)N2C1=O [Cilazapril] | inactive: 39.2%
CCOc1ccc2nc3cc(N)ccc3c(N)c2c1 [Ethacridine Lactate] | inactive: 52%
CC(C)c1nc(CN(C)C(=O)N[C@H](C(=O)N[C@@H](Cc2ccccc2)C[C@H](O)[C@H](Cc2ccccc2)NC(=O)OCc2cncs2)C(C)C)cs1 [Ritonavir] | inactive: 42%
